From patent US9890133B2 (priority 2011, dated 2018)

Columns and labels:
[1] = test system: Coxsackie B1; assay: organism not typed; conditions: read-out: Coxsackie B1 EC50
[2] = test system: Coxsackie B3; assay: microbe, parasite or virus in culture; conditions: Enterovirus B, B3, read-out: Coxsackie B3 EC50
[3] = test system: Rhinovirus; assay: microbe, parasite or virus in culture; format: cell-based; conditions: Enterovirus
[4] = HRV14, read-out: Rhino HRV14 EC50
[5] = HRV21, read-out: Rhino HRV21 EC50
[6] = HRV71, read-out: Rhino HRV71 EC50

Row | Structure (SMILES) | EC50 [1] | EC50 [2] | EC50 [3, 4] | EC50 [3, 5] | EC50 [3, 6]
1 | CCC(=O)NC12C(=O)c3c(N)cccc3C1(O)Oc1cc(C(C)C)ccc12 (centres unmarked) [Example 143, N-(1-Amino-4b-hydroxy-7-isopropyl-10-oxo-9b,10-dihydro-4bH-indeno[1,2-b]benzofuran-9b-yl)propionamide] | < 0.01 µg/mL | < 0.01 µg/mL | < 0.01 µg/mL | < 1 µg/mL | 
2 | CCCC(=O)NC12C(=O)c3c(N)cccc3C1(O)Oc1cc(C(C)C)ccc12 (centres unmarked) [Example 144, N-(1-Amino-4b-hydroxy-7-isopropyl-10-oxo-9b,10-dihydro-4bH-indeno[1,2-b]benzofuran-9b-yl) butyramide] | < 0.01 µg/mL | < 0.01 µg/mL | < 0.01 µg/mL | < 1 µg/mL | 
3 | CC(C)c1ccc2c(c1)OC1(O)c3cccc(N)c3C(=O)C21NC(=O)c1ccccc1 (centres unmarked) [Example 153, N-(1-Amino-4b-hydroxy-7-isopropyl-10-oxo-9b,10-dihydro-4bH-indeno[1,2-b]benzofuran-9b-yl)benzamide] | < 0.01 µg/mL | < 0.01 µg/mL | < 0.01 µg/mL | < 1 µg/mL | < 1 µg/mL
4 | COc1cccc(C(=O)NC23C(=O)c4c(N)cccc4C2(O)Oc2cc(C(C)C)ccc23)c1 (centres unmarked) [Example 154, N-(1-Amino-4b-hydroxy-7-isopropyl-10-oxo-9b,10-dihydro-4bH-indeno[1,2-b]benzofuran-9b-yl)-3-methoxybenzamide] | < 0.01 µg/mL | < 0.01 µg/mL | < 0.01 µg/mL | < 1 µg/mL | < 1 µg/mL
5 | CC(C)c1ccc2c(c1)OC1(O)c3cccc(N)c3C(=O)C21NC(=O)c1ccc(Cl)cc1 (centres unmarked) [Example 155, N-(1-Amino-4b-hydroxy-7-isopropyl-10-oxo-9b,10-dihydro-4bH-indeno[1,2-b]benzofuran-9b-yl)-4-chlorobenzamide] | < 0.01 µg/mL | < 0.01 µg/mL | < 0.01 µg/mL | < 1 µg/mL | < 1 µg/mL
6 | CC(C)c1ccc2c(c1)OC1(O)c3cccc(N)c3C(=O)C21NC(=O)C1CC1 (centres unmarked) [Example 158, N-(1-Amino-4b-hydroxy-7-isopropyl-10-oxo-9b,10-dihydro-4bH-indeno[1,2-b]benzofuran-9b-yl)cyclopropanecarboxamide] | < 0.01 µg/mL | < 0.01 µg/mL | < 0.01 µg/mL | < 1 µg/mL | 
7 | CC(C)c1ccc2c(c1)OC1(O)c3ccccc3C(=O)C21NC(=O)c1cccs1 (centres unmarked) [Example 161, N-(4b-Hydroxy-7-isopropyl-10-oxo-9b,10-dihydro-4bH-indeno[1,2-b]benzofuran-9b-yl)thiophene-2-carboxamide] | < 0.01 µg/mL | < 0.01 µg/mL | < 0.01 µg/mL | < 1 µg/mL | 
8 | CC(C)c1ccc2c(c1)OC1(O)c3cccc(N)c3C(=O)C21NC(=O)NC(C)(C)C (centres unmarked) [Example 165] | < 0.01 µg/mL | < 0.01 µg/mL | < 0.01 µg/mL |  | 
9 | CC(C)c1ccc2c(c1)OC1(O)c3cccc(N)c3C(=O)C21NC=O (centres unmarked) [Example 166, N-(1-Amino-4b-hydroxy-7-isopropyl-10-oxo-9b,10-dihydro-4bH-indeno[1,2-b]benzofuran-9b-yl)formamide] | < 0.01 µg/mL | < 0.01 µg/mL | < 0.01 µg/mL | < 1 µg/mL | < 1 µg/mL
10 | CC(=O)NC12C(=O)c3c(NC=O)cccc3C1(O)Oc1cc(C(C)C)ccc12 (centres unmarked) [Example 167, N-(1-Formamido-4b-hydroxy-7-isopropyl-10-oxo-9b,10-dihydro-4bH-benzo[d]-indeno[1,2-b]furan-9b-yl)acetamide] | < 0.01 µg/mL | 0.034 µg/mL (≈ 0.0894 µM) | 0.038 µg/mL (≈ 0.0999 µM) |  | 
11 | CC(C)c1ccc2c(c1)OC1(O)c3cccc(N)c3C(=O)C21NC(=O)c1ccc(C#N)cc1 (centres unmarked) [Example 170, N-(1-Amino-4b-hydroxy-7-isopropyl-10-oxo-9b,10-dihydro-4bH-indeno[1,2-b]benzofuran-9b-yl)-4-cyanobenzamide] | < 0.01 µg/mL | < 0.01 µg/mL | < 0.01 µg/mL | < 1 µg/mL | < 1 µg/mL
12 | CC(C)c1ccc2c(c1)OC1(O)c3cccc(N)c3C(=O)C21NC(=O)c1ccc2ccccc2c1 (centres unmarked) [Example 171, N-(1-Amino-4b-hydroxy-7-isopropyl-10-oxo-9b,10-dihydro-4bH-indeno[1,2-b]benzofuran-9b-yl)-2-naphthamide] | < 0.01 µg/mL | < 0.01 µg/mL |  | < 1 µg/mL | < 1 µg/mL
13 | CC(C)c1ccc2c(c1)OC1(O)c3cccc(N)c3C(=O)C21NC(=O)c1ccc(-c2ccccc2)cc1 (centres unmarked) [Example 172] | < 0.01 µg/mL | 0.027 µg/mL (≈ 0.055 µM) | 0.0125 µg/mL (≈ 0.0255 µM) |  | 
14 | CC(C)c1ccc2c(c1)OC1(O)c3cccc(N)c3C(=O)C21NC(=O)C1CCCO1 (centres unmarked) [Example 174, N-(1-Amino-4b-hydroxy-7-isopropyl-10-oxo-9b,10-dihydro-4bH-benzo[d]indeno[1,2-b]furan-9b-yl)tetrahydrofurane-2-carboxamide] | < 0.01 µg/mL | < 0.01 µg/mL | < 0.01 µg/mL |  | 
15 | CC(C)c1ccc2c(c1)OC1(O)c3cccc(N)c3C(=O)C21NC(=O)C(F)(F)F (centres unmarked) [Example 175, N-(1-Amino-4b-hydroxy-7-isopropyl-10-oxo-9b,10-dihydro-4bH-indeno[1,2-b]benzofuran-9b-yl)-2,2,2-trifluoroacetamide] | < 0.01 µg/mL | < 0.01 µg/mL | < 0.01 µg/mL |  | 
16 | CC(C)c1ccc2c(c1)OC1(O)c3ccccc3C(=O)C21NC=O (centres unmarked) [Example 177, N-(4b-hydroxy-7-isopropyl-10-oxo-9b,10-dihydro-4bH-indeno[1,2-b]benzofuran-9b-yl)formamide] | < 0.01 µg/mL | < 0.01 µg/mL | < 0.01 µg/mL |  | 
17 | CC(C)c1ccc2c(c1)OC1(O)c3cccc(N)c3C(=O)C21NC(=O)Cc1ccccc1 (centres unmarked) [Example 179, N-(1-Amino-4b-hydroxy-7-isopropyl-10-oxo-9b,10-dihydro-4bH-indeno[1,2-b]benzofuran-9b-yl)-2-phenylacetamide] | < 0.01 µg/mL | < 0.01 µg/mL | < 0.01 µg/mL | < 1 µg/mL | 
18 | CC(C)c1ccc2c(c1)OC1(O)c3cccc(N)c3C(=O)C21NC(=O)/C=C/c1ccc(Cl)c(Cl)c1 (centres unmarked) [Example 180] | < 0.01 µg/mL | < 0.01 µg/mL | 0.0114 µg/mL (≈ 0.0224 µM) |  | 
19 | CC(C)c1ccc2c(c1)OC1(O)c3cccc(N)c3C(=O)C21NC(=O)c1ccc(OCc2ccccc2)cc1 (centres unmarked) [Example 181, N-(1-Amino-4b-hydroxy-7-isopropyl-10-oxo-9b,10-dihydro-4bH-indeno[1,2-b]benzofuran-9b-yl)-4-(benzyloxy)benzamide] | < 0.01 µg/mL | < 0.01 µg/mL | 0.0124 µg/mL (≈ 0.0238 µM) |  | 
20 | CC(C)c1ccc2c(c1)OC1(O)c3cccc(N)c3C(=O)C21NC(=O)Cc1ccc(-c2ccccc2)cc1 (centres unmarked) [Example 182, 2-([1,1′-Biphenyl]-4-yl)-N-(1-amino-4b-hydroxy-7-isopropyl-10-oxo-9b,10-dihydro-4bH-indeno[1,2-b]benzofuran-9b-yl)acetamide] | < 0.01 µg/mL | 0.022 µg/mL (≈ 0.0436 µM) | 0.035 µg/mL (≈ 0.0694 µM) |  | 
21 | COc1ccccc1C(=O)NC12C(=O)c3c(N)cccc3C1(O)Oc1cc(C(C)C)ccc12 (centres unmarked) [Example 183, N-(1-Amino-4b-hydroxy-7-isopropyl-10-oxo-9b,10-dihydro-4bH-indeno[1,2-b]benzofuran-9b-yl)-2-methoxybenzamide] | < 0.01 µg/mL | < 0.01 µg/mL | < 0.01 µg/mL |  | 
22 | Cc1ccccc1C(=O)NC12C(=O)c3c(N)cccc3C1(O)Oc1cc(C(C)C)ccc12 (centres unmarked) [Example 186, N-(1-Amino-4b-hydroxy-7-isopropyl-10-oxo-9b,10-dihydro-4bH-benzo[d]indeno[1,2-b]furan-9b-yl)-2-methylbenzamide] | < 0.01 µg/mL | < 0.01 µg/mL | < 0.01 µg/mL |  | 
23 | Cc1cccc(C(=O)NC23C(=O)c4c(N)cccc4C2(O)Oc2cc(C(C)C)ccc23)c1 (centres unmarked) [Example 187, N-(1-Amino-4b-hydroxy-7-isopropyl-10-oxo-9b,10-dihydro-4bH-benzo[d]indeno[1,2-b]furan-9b-yl)-3-methylbenzamide] | < 0.01 µg/mL | < 0.01 µg/mL | < 0.01 µg/mL | < 1 µg/mL | < 1 µg/mL
24 | Cc1ccc(C(=O)NC23C(=O)c4c(N)cccc4C2(O)Oc2cc(C(C)C)ccc23)cc1 (centres unmarked) [Example 188, N-(1-Amino-4b-hydroxy-7-isopropyl-10-oxo-9b,10-dihydro-4bH-benzo[d]indeno[1,2-b]furan-9b-yl)-4-methylbenzamide] | < 0.01 µg/mL | < 0.01 µg/mL | < 0.01 µg/mL | < 1 µg/mL | < 1 µg/mL
25 | COC(=O)c1ccc(C(=O)NC23C(=O)c4c(N)cccc4C2(O)Oc2cc(C(C)C)ccc23)cc1 (centres unmarked) [Example 189, Methyl-4-(1-amino-4b-hydroxy-7-isopropyl-10-oxo-9b,10-dihydro-4bH-benzo[d]indeno[1,2-b]furan-9b-ylcarbamoyl)benzoate] | < 0.01 µg/mL | < 0.01 µg/mL | < 0.01 µg/mL | < 1 µg/mL | < 1 µg/mL
26 | CC(C)c1ccc2c(c1)OC1(O)c3cccc(N)c3C(=O)C21NC(=O)c1cccc(Cl)c1 (centres unmarked) [Example 190, N-(1-Amino-4b-hydroxy-7-isopropyl-10-oxo-9b,10-dihydro-4bH-indeno[1,2-b]benzofuran-9b-yl)-3-chlorobenzamide] | < 0.01 µg/mL | < 0.01 µg/mL | < 0.01 µg/mL | < 1 µg/mL | < 1 µg/mL
27 | Cc1cc(C)cc(C(=O)NC23C(=O)c4c(N)cccc4C2(O)Oc2cc(C(C)C)ccc23)c1 (centres unmarked) [Example 191, N-(1-Amino-4b-hydroxy-7-isopropyl-10-oxo-9b,10-dihydro-4bH-indeno[1,2-b]benzofuran-9b-yl)-3,5-dimethylbenzamide] | < 0.01 µg/mL | < 0.01 µg/mL | < 0.01 µg/mL |  | < 1 µg/mL
28 | CC(C)c1ccc2c(c1)OC1(O)c3cccc(N)c3C(=O)C21NC(=O)CF (centres unmarked) [Example 193, N-(1-Amino-4b-hydroxy-7-isopropyl-10-oxo-9b,10-dihydro-4bH-benzo[d]indeno[1,2-b]furan-9b-yl)-2-fluoroacetamide] | < 0.01 µg/mL | < 0.01 µg/mL | < 0.01 µg/mL | < 1 µg/mL | 

Converted amounts (≈) assume the structure as drawn. Read-outs that look alike come from different tables or passages of the source.
